The campaign covered roughly 150,000 compounds. About 6,500 (4.3%) were called active. The inconclusive results got no clear call from the source; some entries with a clear call stand among them for comparison. Calls follow the shape of the dose curve; as a rule, active = well fitted inhibition curve with a large enough effect (not every such curve was filed as active); inconclusive = small, poorly fitted or top-dose-only effect, or another doubt; inactive = no such curve, though single readings can be large or run the other way. Potencies of inconclusive entries are left out as doubtful fits.
biological target: 15-hydroxyprostaglandin dehydrogenase [NAD(+)] (Homo sapiens) (UniProt P15428); assay: qHTS Assay for Inhibitors of HPGD (15-Hydroxyprostaglandin Dehydrogenase); conditions: purified HPGD, NADH fluorescence kinetic, PGE2 substrate; activity change, negative = inhibition: hits give low values
Sequence of UniProt P15428 (P15428 whole entry, looked up): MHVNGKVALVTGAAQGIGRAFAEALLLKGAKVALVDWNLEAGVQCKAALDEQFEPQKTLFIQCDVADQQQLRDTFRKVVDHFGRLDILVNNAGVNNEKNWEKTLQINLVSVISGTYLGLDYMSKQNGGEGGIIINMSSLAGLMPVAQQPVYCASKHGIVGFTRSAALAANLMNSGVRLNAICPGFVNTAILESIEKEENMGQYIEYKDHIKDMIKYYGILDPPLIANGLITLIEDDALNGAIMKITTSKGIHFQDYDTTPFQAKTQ
In short: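 20 nM HPGD preincubated 15 min at room temperature with compound in 50 mM Tris-HCl pH 8, 0.01% Tween 20. Started with 1 mM NAD+ and 30 uM prostaglandin E2; NADH fluorescence (360/450 nm) read 5 times over 30-s intervals, last minus first.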
% is scaled to controls: 0 for no effect and ±100 for the full control effect; potency is read from the fitted curve at half-maximal effect; tags tell the direction and shape of the fitted curve.

SMILES	Potency	activity change, negative = inhibition
C=CCc1ccc(O)c(-c2cc(CC=C)ccc2O)c1	inconclusive [inhibitor, partial curve]	–
COc1ccc2c(c1)C(=O)N(CCc1ccc(S(=O)(=O)NC(=O)NC3CCCCC3)cc1)C(=O)C2(C)C	inconclusive [inhibitor, partial curve, poor fit]	–
c1ccc(CN2CC[C@@H](CNc3ncnc4ccccc34)C2)cc1	–	inactive: -0.269%
CCn1c(N)c(C(=O)NCCOC)sc1=S	inconclusive [inhibitor, single point]	–
CC(=O)c1cnc2cc(-c3ccc(C)cc3)nn2c1C	inconclusive [inhibitor, single point]	–
CC1CCCC(C)N1/N=C/c1cc(Br)c(O)c(Br)c1 (centres undefined)	–	inactive: -13.1%
N=c1c2c(-c3ccccc3)c(-c3ccccc3)oc2ncn1Cc1ccco1	inconclusive [inhibitor, single point]	–
CC1(C)Oc2ccc(NC(=O)C3COc4ccccc4O3)cc2O1 (centres undefined)	active: 20 µM	–
Cc1ccsc1C1Nc2ccccc2-c2nc3ccccc3n21 (centres undefined)	inconclusive [inhibitor, partial curve]	–
COc1ccc2[nH]c(=O)c(CN(Cc3ccccc3OC)Cc3nnnn3CC3CCCO3)cc2c1 (centres undefined)	inconclusive [inhibitor, partial curve]	–
CC1CCC(NC(=O)Cn2ncc3ccccc32)CC1 (centres undefined)	–	inactive: -0.201%
C[C@@H](CNC1CCCCC1)OC(=O)c1ccccc1	–	inactive: -8.3%
COc1ccc(C(=O)NNC(=O)C(Cc2ccc(O)cc2)NC(=O)c2ccccc2NC(=O)c2ccc(OC)cc2)cc1 (centres undefined)	inconclusive [inhibitor, single point]	–
CCCN(S(=O)(=O)c1ccc(OCC)cc1)S(=O)(=O)c1cccs1	inconclusive [inhibitor, partial curve]	–
O=C(/C=C/c1ccc(-c2ccccc2[N+](=O)[O-])o1)c1ccc(F)cc1	inconclusive [inhibitor, single point]	–
Cc1nc(SCC(=O)c2ccc(F)cc2)n[nH]1	active: 10 µM	–
COc1ccc2oc(=O)c(-c3nc4ccccc4o3)cc2c1	inconclusive [inhibitor, partial curve]	–
CCOC(=O)N1CCC(Nc2nc3ccccc3n3nnnc23)CC1	inconclusive [inhibitor, partial curve]	–
CCOC(=O)c1sc(NC(=O)CSc2nc3c(c(=O)n2-c2ccc(F)cc2)SCC3)c(C(=O)OCC)c1C	–	inactive: -5.87%

Source: PubChem BioAssay AID894 (National Center for Advancing Translational Sciences (NCATS), 2007)
